# Data taken from the supplement of paper PMC8728848.
# This is one part of the list.
# Key:
# Experiment in all cases: glycan array binding signal (z-score within array); higher = stronger binding
# Settings in all cases: glycan notation: IUPAC condensed, linker removed
# [1] = target: Fuc(a1-2)Gal(b1-4)GlcNAc(b1-3)Gal(b1-4)GlcNAc(b1-3)Gal(b1-4)GlcNAc
# Method in brief: (§1)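 The binding signal is a Z-score computed within each array and averaged over linkers. Arrays of the same protein sequence at different concentrations or buffers were also averaged together. Data originate from 3228 arrays in the Consortium for Functional Glycomics database, kept only where the protein sequence was available.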
# [2] = target: Fuc(a1-2)Gal(b1-4)GlcNAc(b1-3)GalNAc
# Method in brief: as §1
# [3] = target: Fuc(a1-2)Gal(b1-4)GlcNAc(b1-3)[Fuc(a1-2)Gal(b1-4)GlcNAc(b1-6)]GalNAc
# Method in brief: as §1
# [4] = target: Fuc(a1-2)Gal(b1-4)GlcNAc(b1-3)[Fuc(a1-3)[Gal(b1-4)]GlcNAc(b1-6)]Gal(b1-4)Glc
# Method in brief: as §1
# [5] = target: Fuc(a1-2)Gal(b1-4)GlcNAc(b1-6)GalNAc
# Method in brief: as §1
# [6] = target: Fuc(a1-2)Gal(b1-4)GlcNAc6S
# Method in brief: as §1
# [7] = target: Fuc(a1-2)Gal(b1-4)[Fuc(a1-3)]GlcNAc
# Method in brief: as §1
# [8] = target: Fuc(a1-2)Gal(b1-4)[Fuc(a1-3)]GlcNAc(b1-2)Man(a1-3)[Fuc(a1-2)Gal(b1-4)[Fuc(a1-3)]GlcNAc(b1-2)Man(a1-6)]Man(b1-4)GlcNAc(b1-4)[Fuc(a1-6)]GlcNAc
# Method in brief: as §1
# [9] = target: Fuc(a1-2)Gal(b1-4)[Fuc(a1-3)]GlcNAc(b1-2)[Fuc(a1-2)Gal(b1-4)[Fuc(a1-3)]GlcNAc(b1-4)]Man(a1-3)[Fuc(a1-2)Gal(b1-4)[Fuc(a1-3)]GlcNAc(b1-2)Man(a1-6)]Man(b1-4)GlcNAc(b1-4)GlcNAc
# Method in brief: as §1
# [10] = target: Fuc(a1-2)Gal(b1-4)[Fuc(a1-3)]GlcNAc(b1-3)Gal(b1-4)[Fuc(a1-3)]GlcNAc
# Method in brief: as §1
# [11] = target: Fuc(a1-2)Gal(b1-4)[Fuc(a1-3)]GlcNAc(b1-3)Gal(b1-4)[Fuc(a1-3)]GlcNAc(b1-3)Gal(b1-4)[Fuc(a1-3)]GlcNAc
# Method in brief: as §1
# [12] = target: Fuc(a1-2)Gal(b1-4)[Fuc(a1-3)]GlcNAc(b1-3)GalNAc
# Method in brief: as §1
# [13] = target: Fuc(a1-2)Gal(b1-4)[Fuc(a1-3)]GlcNAc(b1-3)[Neu5Ac(a2-6)Gal(b1-4)GlcNAc(b1-6)]Gal(b1-4)Glc
# Method in brief: as §1
# [14] = target: Fuc(a1-2)Gal3S(b1-4)GlcNAc
# Method in brief: as §1
# [15] = target: Fuc(a1-2)Gal6S(b1-3)GlcNAc
# Method in brief: as §1
# [16] = target: Fuc(a1-2)Gal6S(b1-3)GlcNAc6S
# Method in brief: as §1
# [17] = target: Fuc(a1-2)Gal6S(b1-4)Glc
# Method in brief: as §1
# [18] = target: Fuc(a1-2)Gal6S(b1-4)Glc6S
# Method in brief: as §1
# [19] = target: Fuc(a1-2)[Gal(a1-3)]Gal
# Method in brief: as §1
# [20] = target: Fuc(a1-2)[Gal(a1-3)]Gal(b1-3)GalNAc
# Method in brief: as §1
# [21] = target: Fuc(a1-2)[Gal(a1-3)]Gal(b1-3)GalNAc(b1-3)Gal(a1-4)Gal(b1-4)Glc
# Method in brief: as §1
# [22] = target: Fuc(a1-2)[Gal(a1-3)]Gal(b1-3)GlcNAc
# Method in brief: as §1
# [23] = target: Fuc(a1-2)[Gal(a1-3)]Gal(b1-3)GlcNAc(b1-2)Man(a1-3)[Fuc(a1-2)[Gal(a1-3)]Gal(b1-3)GlcNAc(b1-2)Man(a1-6)]Man(b1-4)GlcNAc(b1-4)GlcNAc
# Method in brief: as §1
# [24] = target: Fuc(a1-2)[Gal(a1-3)]Gal(b1-3)GlcNAc(b1-2)Man(a1-3)[Fuc(a1-2)[Gal(a1-3)]Gal(b1-3)GlcNAc(b1-2)Man(a1-6)]Man(b1-4)GlcNAc(b1-4)[Fuc(a1-6)]GlcNAc
# Method in brief: as §1
# [25] = target: Fuc(a1-2)[Gal(a1-3)]Gal(b1-3)GlcNAc(b1-3)GalNAc
# Method in brief: as §1
# [26] = target: Fuc(a1-2)[Gal(a1-3)]Gal(b1-3)GlcNAc(b1-6)GalNAc
# Method in brief: as §1
# [27] = target: Fuc(a1-2)[Gal(a1-3)]Gal(b1-4)Glc
# Method in brief: as §1
# [28] = target: Fuc(a1-2)[Gal(a1-3)]Gal(b1-4)GlcNAc
# Method in brief: as §1
# [29] = target: Fuc(a1-2)[Gal(a1-3)]Gal(b1-4)GlcNAc(b1-2)Man
# Method in brief: as §1
# [30] = target: Fuc(a1-2)[Gal(a1-3)]Gal(b1-4)GlcNAc(b1-2)Man(a1-3)[Fuc(a1-2)[Gal(a1-3)]Gal(b1-4)GlcNAc(b1-2)Man(a1-6)]Man(b1-4)GlcNAc(b1-4)GlcNAc
# Method in brief: as §1
binder,measurement,setting,value
LngA (Escherichia coli) (protein) MLSVYNRTQKFKAEARKKIAKYHELRKQRGMSLLEVIIVLGIIGTIAAGVVILAQRAFDSRAVTDLVTNTNTVRVRMKDAYQRDGKYPDFVDPLSLTANTIKTDTSGIPAAQLVQLGKITPDEVRNNISGDFIAIGGALTSNGAQVKKGFAIELNGLSQEQCRSILGQVGNNWEYVAIGTSASGSYAMTATGVDMSVAASTTVLRSLGNNGQTTLTADKILSTCTAQVNSITLGSR,glycan array binding signal (z-score),[1],-0.415
same,glycan array binding signal (z-score),[2],-0.376
same,glycan array binding signal (z-score),[3],-0.186
same,glycan array binding signal (z-score),[4],-0.563
same,glycan array binding signal (z-score),[5],0.251
same,glycan array binding signal (z-score),[6],-0.298
same,glycan array binding signal (z-score),[7],-0.106
same,glycan array binding signal (z-score),[8],-0.231
same,glycan array binding signal (z-score),[9],0.84
same,glycan array binding signal (z-score),[10],-0.488
same,glycan array binding signal (z-score),[11],-0.414
same,glycan array binding signal (z-score),[12],0.215
same,glycan array binding signal (z-score),[13],-0.382
same,glycan array binding signal (z-score),[14],-0.444
same,glycan array binding signal (z-score),[15],-0.411
same,glycan array binding signal (z-score),[16],0.694
same,glycan array binding signal (z-score),[17],-0.333
same,glycan array binding signal (z-score),[18],0.398
same,glycan array binding signal (z-score),[19],-0.307
same,glycan array binding signal (z-score),[20],-0.382
same,glycan array binding signal (z-score),[21],-0.264
same,glycan array binding signal (z-score),[22],1.83
same,glycan array binding signal (z-score),[23],-0.509
same,glycan array binding signal (z-score),[24],-0.231
same,glycan array binding signal (z-score),[25],-0.248
same,glycan array binding signal (z-score),[26],-0.18
same,glycan array binding signal (z-score),[27],-0.151
same,glycan array binding signal (z-score),[28],-0.379
same,glycan array binding signal (z-score),[29],-0.429
same,glycan array binding signal (z-score),[30],-0.19
